58 sequences from the BET-seq Pho4 binding data (Le et al. 2018) can be followed below.

Some of the results follow. Values were computed here from the reads of four pooled replicates and scatter widely.

The test addresses T1, Pho4 (S. cerevisiae) (UniProt P07270).
T1 sequence: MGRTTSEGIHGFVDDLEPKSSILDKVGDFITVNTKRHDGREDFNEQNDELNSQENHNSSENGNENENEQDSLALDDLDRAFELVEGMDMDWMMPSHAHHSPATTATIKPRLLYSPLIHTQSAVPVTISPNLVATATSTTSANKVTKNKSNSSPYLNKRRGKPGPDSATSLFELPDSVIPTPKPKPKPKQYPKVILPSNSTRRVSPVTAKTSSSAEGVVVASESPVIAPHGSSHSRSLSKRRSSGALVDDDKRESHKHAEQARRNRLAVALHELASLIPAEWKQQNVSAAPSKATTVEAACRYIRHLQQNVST
The test can be described thus: relative binding free energy (BET-seq); higher = weaker binding. As to conditions: reference: library average.
Turning to TTGTGCACGTGGAACA, the “relative binding free energy” value is -0.04 kcal/mol.

Consider GTGCGCACGTGGTCGG, for which the “relative binding free energy” value was -0.23 kcal/mol. Regarding ATGCACACGTGGGTTT, the “relative binding free energy” value is -0.1 kcal/mol. For AGCGGCACGTGATGAT, the “relative binding free energy” value was determined as 0.14 kcal/mol. For GGGCGCACGTGAGAGT, the “relative binding free energy” value was found to be 0.2 kcal/mol. For the sequence AATGCCACGTGGTTTA, the “relative binding free energy” value was -0.14 kcal/mol.

Take GAACGCACGTGAGGGA: the “relative binding free energy” value was 0.38 kcal/mol.

With TTCTGCACGTGTAAGG, the “relative binding free energy” value came to 0.19 kcal/mol. As for GCGTCCACGTGGGGGG, the “relative binding free energy” value is -0.05 kcal/mol. With CTTGGCACGTGAAGGT the figure was 0.12 kcal/mol. As for TATTCCACGTGGTGGG, the “relative binding free energy” value is -0.01 kcal/mol. Consider TGAGGCACGTGTGTAG, for which the “relative binding free energy” value is -0.07 kcal/mol. With CGGAGCACGTGGGGCT the figure was -0.21 kcal/mol; with ATGATCACGTGGTTCG, 0.07 kcal/mol; with TATTACACGTGCTGTG, 0.03 kcal/mol.

For the sequence GGCGTCACGTGGTAGG, the “relative binding free energy” value is 0.09 kcal/mol. On to GGGTACACGTGTTATT, for which the “relative binding free energy” value was 0.15 kcal/mol. With GGGTTCACGTGCCGGT the figure was 0.45 kcal/mol. With GCTTGCACGTGTATGG, the “relative binding free energy” value is 0 kcal/mol.

Take ATTCGCACGTGGGGCT: the “relative binding free energy” value was -0.23 kcal/mol.

On to GATGACACGTGTAATG, for which the “relative binding free energy” value was 0.36 kcal/mol. With TTTAACACGTGCTGTA the figure was -0.04 kcal/mol; with TGAACCACGTGATGTG, 0.16 kcal/mol.

In the case of TTGAGCACGTGGCGGC, the “relative binding free energy” value is -0.17 kcal/mol. For TAGGACACGTGGACGG, the “relative binding free energy” value is -0.01 kcal/mol. Take ATATTCACGTGGTCTA: the “relative binding free energy” value was 0.08 kcal/mol. For TTTGGCACGTGTGACG, the “relative binding free energy” value is -0.04 kcal/mol. In the case of TGGTTCACGTGGGACG it was 0.36 kcal/mol; in that of TGGATCACGTGTGTCG, 0.22 kcal/mol; in that of GGATACACGTGGTGGA, -0.04 kcal/mol.

For CAGGCCACGTGGGGAG, the “relative binding free energy” value was -0.12 kcal/mol. With GTTATCACGTGGTAGG the figure was 0.15 kcal/mol; with AGAAACACGTGTTGGA, 0.13 kcal/mol.

Turning to CTGTTCACGTGGGGTT, the “relative binding free energy” value was determined as 0.18 kcal/mol.

On to TGGGTCACGTGGCAGC, for which the “relative binding free energy” value worked out at 0.05 kcal/mol.

As for TGTTTCACGTGTAGGC, the “relative binding free energy” value was 0.37 kcal/mol. TTGCGCACGTGTATAT: the “relative binding free energy” value was -0.09 kcal/mol. In the case of TTTGGCACGTGATTTT, the “relative binding free energy” value was found to be 0.07 kcal/mol.

GTTTCCACGTGTGTTA: the “relative binding free energy” value worked out at 0.2 kcal/mol. In the case of TAATGCACGTGAGTAG it was 0.1 kcal/mol; in that of CGTGGCACGTGTAAGG, 0.14 kcal/mol; in that of ATGAACACGTGTTTTG, -0.06 kcal/mol.

For the sequence GGGCGCACGTGTTATG, the “relative binding free energy” value stood at 0.05 kcal/mol. Turning to CTAGTCACGTGATGTG, the “relative binding free energy” value stood at 0.11 kcal/mol.

As for AGGGTCACGTGGTAAA, the “relative binding free energy” value is 0.11 kcal/mol. For TGCGTCACGTGCATGG, the “relative binding free energy” value came to 0.05 kcal/mol. As to ATGTACACGTGCAGTG, the “relative binding free energy” value is -0.06 kcal/mol. In the case of TGCGTCACGTGCTAGG it was -0.07 kcal/mol; in that of GTGGTCACGTGTAAGG, 0.16 kcal/mol. With GGGGGCACGTGGTGTT the figure was -0.12 kcal/mol; with CAGTTCACGTGAAGTT, 0.41 kcal/mol. With TGCGGCACGTGTTGCG the figure was -0.19 kcal/mol; with GAAGGCACGTGTATTT, 0.05 kcal/mol; with AGGGTCACGTGAGCGC, 0.25 kcal/mol. On to TACGTCACGTGGGTAT, for which the “relative binding free energy” value is -0.12 kcal/mol. As for TCAAGCACGTGGTGTG, the “relative binding free energy” value is -0.22 kcal/mol. With TAAGGCACGTGTCGGA the figure was -0.03 kcal/mol; with AGAGGCACGTGTCGTG, -0.07 kcal/mol.
